Structures can show the parent of a compound that is named as a salt. ± gives the standard deviation of the averaged measurements. Some of the results follow. Many values rest on one well or one pass, so single values are uncertain.
How the values were obtained:
Experiment in all cases: log2 surviving fraction relative to plate median (drug vs vehicle, or drug+dl922-947 vs dl922-947 alone); ovarian cancer lines: OVCAR4 is platinum-sensitive while Ov4Cis resists cisplatin and Ov4Carbo carboplatin; higher = more cell survival
Conditions in all cases: compound concentration: 10 uM, 192 h
OVCAR4 = system: OVCAR4
Ov4Carbo = system: Ov4Carbo
Ov4Cis = system: Ov4Cis
[1] = dl922-947 oncolytic adenovirus co-treatment: MOI 10
[2] = dl922-947 oncolytic adenovirus co-treatment: none

SMILES | log2 surviving fraction (OVCAR4; [1]) | log2 surviving fraction (OVCAR4; [2]) | log2 surviving fraction (Ov4Carbo; [1]) | log2 surviving fraction (Ov4Carbo; [2]) | log2 surviving fraction (Ov4Cis; [1]) | log2 surviving fraction (Ov4Cis; [2])
C=C(NC(=O)C(=C)NC(=O)c1csc(C2=N[C@@H]3c4csc(n4)[C@H]4NC(=O)c5csc(n5)[C@H]([C@](C)(O)[C@@H](C)O)NC(=O)[C@H]5CSC(=N5)/C(=C/C)NC(=O)[C@H]([C@@H](C)O)NC(=O)c5csc(n5)[C@]3(CC2)NC(=O)[C@H](C)NC(=O)C(=C)NC(=O)[C@H](C)NC(=O)[C@H]([C@@H](C)CC)N[C@@H]2C=Cc3c([C@H](C)O)cc(nc3[C@H]2O)C(=O)O[C@@H]4C)n1)C(N)=O [Thiostrepton] | -6.174 ± 0.054 | -7.66 ± 10 | -7.88 | -11.1 | -6.06 | -14.8
CC#CCn1c(N2CCC[C@@H](N)C2)nc2c1c(=O)n(Cc1nc(C)c3ccccc3n1)c(=O)n2C [Linagliptin (BI-1356)] | -1.17 ± 0.4 | -0.706 ± 1.3 | 0.635 | 0.792 | -0.887 | -1.42
O=C(O[C@H]1C[C@H]2CC[C@@H](C1)[N+]21CCCC1)C(O)(c1ccccc1)c1ccccc1 [Trospium chloride (Sanctura)] | -0.261 ± 0.41 | -0.246 ± 0.25 | 1.64 | -0.0323 | 0.184 | -0.518
COCCOC(=O)C1=C(C)NC(C)=C(C(=O)OC(C)C)C1c1cccc([N+](=O)[O-])c1 (stereo not given) [Nimodipine (Nimotop)] | -1.22 ± 0.23 | -0.313 ± 0.53 | 0.817 | 0.0115 | -0.553 | -1.16
COc1ccc(CN(CCN(C)C)c2ccccn2)cc1 [Pyrilamine Maleate] | 0.0134 ± 0.15 | -0.00364 ± 0.59 | -1.22 | 0.248 | -1.38 | 0.358
O=C(O)Cc1ccccc1Nc1c(Cl)cccc1Cl [Diclofenac] | -0.56 ± 0.046 | -0.759 ± 1.3 | 1.41 | 0.51 | 0.429 | 0.0905
CN1C(=O)CCS(=O)(=O)C1c1ccc(Cl)cc1 (stereo not given) [Chlormezanone (Trancopal)] | 0.322 ± 0.95 | -0.0767 ± 0.78 | 0.0671 | 0.111 | -0.428 | -0.251
CN(CCOc1ccc(CC2SC(=O)NC2=O)cc1)c1ccccn1 (stereo not given) [Rosiglitazone HCl] | 1.26 ± 0.035 | 1.21 ± 0.98 | 0.0453 | 0.114 | 0.554 | 1.03
Cc1cccc(Nc2ccncc2S(=O)(=O)NC(=O)NC(C)C)c1 [Torsemide (Demadex)] | 0.0169 ± 0.17 | 0.418 ± 0.1 | -0.437 | -0.984 | 0.996 | 0.578
Cc1c(-c2ccccc2)oc2c(C(=O)OCCN3CCCCC3)cccc2c1=O [Flavoxate HCl] | 0.906 ± 0.7 | 0.954 ± 0.49 | -0.492 | 1.83 | 0.547 | -0.0866
O=C1OC(CN2CCOCC2)CN1/N=C/c1ccc([N+](=O)[O-])o1 (stereo not given) [Furaltadone HCl] | -0.292 ± 0.36 | -0.862 ± 0.6 | -0.536 | -0.387 | -0.2 | -0.355
COc1cc2ncnc(Nc3ccc(F)c(Cl)c3)c2cc1OCCCN1CCOCC1 [Gefitinib (Iressa)] | 0.937 ± 0.36 | -3.23 ± 4.6 | 1.31 | 0.421 | 0.568 | 0.959
CCOc1ccc(NC(C)=O)cc1 [Phenacetin] | 0.425 ± 0.46 | -0.134 ± 0.17 | 0.79 | 0.436 | -0.61 | -1.02
CCOc1cc(CC(=O)N[C@@H](CC(C)C)c2ccccc2N2CCCCC2)ccc1C(=O)O [Repaglinide] | 1.05 ± 0.27 | -0.162 ± 1.5 | -0.24 | 2.43 | 1.32 | 0.773
C1N2CN3CN1CN(C2)C3 [Methenamine (Mandelamine)] | 0.0864 ± 0.1 | 0.184 ± 0.42 | 1.07 | 0.302 | 0.232 | 1.16
OCCOCCN1CCN(C(c2ccccc2)c2ccc(Cl)cc2)CC1 (stereo not given) [Hydroxyzine 2HCl] | -0.187 ± 0.95 | 0.559 ± 2 | -1.65 | 1.57 | -0.427 | 0.145
O=C1CC[C@@]2(O)[C@H]3Cc4ccc(O)c5c4[C@@]2(CCN3CC2CC2)[C@H]1O5 [Naltrexone HCl] | 0.246 ± 0.48 | 0.00235 ± 0.46 | -0.214 | -0.21 | 0.333 | 0.0711
C[C@]12C=CC(=O)N[C@@H]1CC[C@@H]1[C@@H]2CC[C@]2(C)[C@@H](C(=O)Nc3cc(C(F)(F)F)ccc3C(F)(F)F)CC[C@@H]12 [Dutasteride] | 0.671 ± 0.09 | -3.06 ± 5.5 | 1.1 | 1.96 | -0.0557 | -0.249

SMILES | log2 surviving fraction (OVCAR4; [1]) | log2 surviving fraction (OVCAR4; [2]) | log2 surviving fraction (Ov4Carbo; [1]) | log2 surviving fraction (Ov4Carbo; [2]) | log2 surviving fraction (Ov4Cis; [1]) | log2 surviving fraction (Ov4Cis; [2])
COC(=O)Nc1nc2cc([S+]([O-])c3ccccc3)ccc2[nH]1 (stereo not given) [Oxfendazole] | -0.951 ± 0.27 | -2.59 ± 0.98 | -1.18 | -1.3 | -1.19 | -1.91
OC(c1ccccc1)(c1ccccc1)C1CCNCC1 [Azacyclonol] | -1.53 ± 0.15 | -0.732 ± 0.5 | -0.103 | -1.39 | -1.44 | -0.567
CC[C@]1(O)C[C@H]2CN(CCc3c([nH]c4ccccc34)[C@@](C(=O)OC)(c3cc4c(cc3OC)N(C=O)[C@H]3[C@@](O)(C(=O)OC)[C@H](OC(C)=O)[C@]5(CC)C=CCN6CC[C@]43[C@@H]65)C2)C1 [Vincristine] | -5.37 ± 0.12 | -6.74 ± 4.4 | -4.6 | -9.47 | -5.39 | -9.89
c1ccc(C2CN3CCSC3=N2)cc1 (stereo not given) [Tetramisole HCl] | 0.331 ± 0.47 | 0.106 ± 1.6 | 0.534 | -0.222 | 0.734 | -2.12
Nc1nc(O)c2ncn(CCC(CO)CO)c2n1 [Penciclovir] | -0.0173 ± 0.88 | -0.247 ± 1.1 | 0.91 | -4.9 | -1.41 | -1.29
NCC(O)c1ccc(O)cc1 (racemic) [(+,-)-Octopamine HCl] | -0.497 ± 0.43 | -0.215 ± 0.059 | 0.449 | 0.312 | 0.234 | -0.235
C[C@]12CC[C@H](O)CC1=CC[C@@H]1[C@@H]2CC[C@]2(C)C(=O)CC[C@@H]12 [Dehydroepiandrosterone (DHEA)] | 0.289 ± 0.18 | 0.554 ± 0.27 | 0.74 | -0.0756 | 0.739 | 0.743
CC/C(=C(\c1ccccc1)c1ccc(OCCN(C)C)cc1)c1ccccc1 [Tamoxifen Citrate (Nolvadex)] | -3.58 ± 1.5 | -2.58 ± 1.6 | -3.33 | -2.07 | -6.85 | -4.65
Fc1ccc(C(c2ccc(F)cc2)N2CCN(C/C=C/c3ccccc3)CC2)cc1 [Flunarizine 2HCl] | -1.85 ± 0.11 | -1.98 ± 0.64 | -1.47 | -3.74 | -2.96 | -2.36
CC[C@@H](C(N)=O)N1CCCC1=O [Levetiracetam] | -0.0271 ± 0.62 | 0.919 ± 0.56 | 0.08 | -0.555 | 0.847 | 0.312
CCCCCN(C)CCC(O)(P(=O)(O)O)P(=O)(O)O [Ibandronate sodium] | -0.243 ± 0.026 | -1.6 ± 1.4 | 0.443 | -1.69 | -1.03 | -0.457
CC(=O)OCC(=O)[C@H]1CC[C@H]2[C@@H]3CCC4=CC(=O)CC[C@]4(C)[C@H]3CC[C@]12C [Deoxycorticosterone acetate] | 0.54 ± 0.18 | 0.327 ± 0.11 | 0.256 | 0.703 | 0.631 | 0.976
Cc1ncc([N+](=O)[O-])n1CCO [Metronidazole (Flagyl)] | 0.239 ± 0.64 | -0.179 ± 0.26 | 0.405 | -2.52 | 0.512 | -0.0657
CN[C@H](CC(C)C)C(=O)N[C@H]1C(=O)N[C@@H](CC(N)=O)C(=O)N[C@H]2C(=O)N[C@H]3C(=O)N[C@H](C(=O)N[C@H](C(=O)O)c4cc(O)cc(O)c4-c4cc3ccc4O)[C@H](O)c3ccc(c(Cl)c3)Oc3cc2cc(c3O[C@@H]2O[C@H](CO)[C@@H](O)[C@H](O)[C@H]2O[C@H]2C[C@](C)(N)[C@H](O)[C@H](C)O2)Oc2ccc(cc2Cl)[C@H]1O [Vancomycin HCl (Vancocin)] | 0.721 ± 0.57 | 0.314 ± 1.4 | 0.297 | 0.904 | 0.504 | 0.07
Cc1cc(C(C)(C)C)c(O)c(C)c1CC1=NCCN1 [Oxymetazoline hydrochloride] | 0.521 ± 0.2 | 0.215 ± 0.0039 | 0.559 | 0.211 | 0.474 | -0.103
CN(C)CCN(Cc1ccccc1)c1ccccn1 [Tripelennamine HCl] | 0.477 ± 0.22 | 0.322 ± 0.35 | 0.708 | -0.107 | -0.204 | 0.427
O=C1c2ccccc2C(=O)C1c1ccccc1 [Phenindione (Rectadione)] | 0.244 ± 0.76 | 0.242 ± 0.33 | 0.381 | 0.317 | 0.926 | 2.3

Source: the supplement of paper PMC8813932
